Results are given in words; binding and its absence hold for the method and conditions named. Some results given as binding are weak or reduced against the parent protein; the word gives no strength. Where a sequence is shown, tags or fusion partners need not be part of it.
How the values were obtained:
Test in all cases: two-hybrid; OsCAF1 and its truncations in pGBKT7 (BD), OsCRS2 in pGADT7 (AD), co-transformed into yeast AH109; grown on SD-T/L at 28 °C, interaction read on SD/-Trp-Leu-His-Ade with dilution series
[1] = target: T1, OsCAF1 (full-length, BD-OsCAF1) (rice) (UniProt Q5VMQ5)
T1 sequence: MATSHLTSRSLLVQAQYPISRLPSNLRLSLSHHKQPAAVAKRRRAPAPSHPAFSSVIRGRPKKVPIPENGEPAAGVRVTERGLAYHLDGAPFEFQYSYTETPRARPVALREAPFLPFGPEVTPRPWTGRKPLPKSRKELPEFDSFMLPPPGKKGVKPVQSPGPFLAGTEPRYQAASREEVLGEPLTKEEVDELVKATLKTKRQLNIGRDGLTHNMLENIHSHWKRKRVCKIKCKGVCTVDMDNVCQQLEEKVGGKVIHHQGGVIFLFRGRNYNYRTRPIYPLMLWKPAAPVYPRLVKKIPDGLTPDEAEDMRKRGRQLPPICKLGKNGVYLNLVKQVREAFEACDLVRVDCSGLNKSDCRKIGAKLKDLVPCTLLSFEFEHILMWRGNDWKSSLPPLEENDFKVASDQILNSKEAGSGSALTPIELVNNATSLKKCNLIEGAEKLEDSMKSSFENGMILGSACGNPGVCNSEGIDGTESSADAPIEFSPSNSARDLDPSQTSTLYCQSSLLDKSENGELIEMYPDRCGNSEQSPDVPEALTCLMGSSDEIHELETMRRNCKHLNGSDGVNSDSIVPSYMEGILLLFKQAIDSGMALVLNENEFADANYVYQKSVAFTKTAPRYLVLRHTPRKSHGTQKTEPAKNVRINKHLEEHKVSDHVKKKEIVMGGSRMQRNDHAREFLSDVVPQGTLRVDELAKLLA

[2] = target: T2, OsCAF1-C1 (387-584) (rice) (UniProt Q5VMQ5)
T2 sequence: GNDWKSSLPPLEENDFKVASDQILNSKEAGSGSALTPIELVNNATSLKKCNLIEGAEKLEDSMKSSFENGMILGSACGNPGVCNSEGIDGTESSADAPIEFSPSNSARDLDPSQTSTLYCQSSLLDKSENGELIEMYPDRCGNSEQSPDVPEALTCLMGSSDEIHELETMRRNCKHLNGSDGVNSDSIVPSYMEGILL

OsCAF1-N (1-184) (rice) = target: T3, OsCAF1-N (1-184) (rice) (UniProt Q5VMQ5)
T3 sequence: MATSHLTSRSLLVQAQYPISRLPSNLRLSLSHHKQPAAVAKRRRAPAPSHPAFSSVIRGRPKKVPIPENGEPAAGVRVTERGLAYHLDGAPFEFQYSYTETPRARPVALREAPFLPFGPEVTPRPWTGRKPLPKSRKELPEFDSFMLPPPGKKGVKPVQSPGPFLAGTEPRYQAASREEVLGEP

[3] = target: T4, OsCAF1-M (185-386) (rice) (UniProt Q5VMQ5)
T4 sequence: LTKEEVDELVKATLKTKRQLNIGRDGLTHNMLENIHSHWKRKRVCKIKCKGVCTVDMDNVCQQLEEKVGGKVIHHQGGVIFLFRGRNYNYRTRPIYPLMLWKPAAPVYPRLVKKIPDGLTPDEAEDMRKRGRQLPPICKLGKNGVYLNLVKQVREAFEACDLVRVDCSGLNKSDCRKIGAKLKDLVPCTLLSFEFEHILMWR

[4] = target: T5, OsCAF1-C4 (685-701) (rice) (UniProt Q5VMQ5)
T5 sequence: VVPQGTLRVDELAKLLA

[5] = target: T6, OsCAF1-C2 (585-598) (rice) (UniProt Q5VMQ5)
T6 sequence: LFKQAIDSGMALVL

[6] = target: T7, OsCAF1-C (387-701) (rice) (UniProt Q5VMQ5)
T7 sequence: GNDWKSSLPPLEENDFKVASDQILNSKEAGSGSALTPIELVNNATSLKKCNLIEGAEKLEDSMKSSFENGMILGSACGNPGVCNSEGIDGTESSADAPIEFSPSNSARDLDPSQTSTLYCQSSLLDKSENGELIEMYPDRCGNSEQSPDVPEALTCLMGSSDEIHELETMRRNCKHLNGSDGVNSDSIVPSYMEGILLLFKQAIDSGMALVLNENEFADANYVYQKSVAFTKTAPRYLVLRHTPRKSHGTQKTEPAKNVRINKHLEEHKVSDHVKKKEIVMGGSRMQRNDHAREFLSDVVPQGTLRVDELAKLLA

- binding [1]: binds
- binding [2]: binds
- binding (OsCAF1-N (1-184) (rice)): no binding
- binding [3]: no binding
- binding [4]: no binding
- binding [5]: no binding
- binding [6]: binds
B1: OsCRS2 (full-length, AD-OsCRS2) (protein, UniProt Q5ZCL8 1-259)
chain: MSLAVATPASARLSPLTTSSPEPCRRRRLLLSAAAPLRRTRLRRRIAVVASVPDPAARPAEYTPWLIAGLGNPGSKYHGTRHNVGFEMVDRIARDEGITMNTIQSKSLLGIGSIGEVPVLLVKPQSYINYSGEAIGPLAAYYQVPLRHILVMYDEMSLPNGVLRLQRKGGHGRHNGLQNVMECLDSSRELPRLSIGIGSPPGKMDTRAFLLQKFSSEERLQIDTALEQGVDAVRTLVLKGFSGSIERFNLVQKYKFHSV

Source: paper PMC6770308
